# Laboratory results published in the supplement of paper PMC8728848.
# The other results are listed elsewhere or left out.
# B1: Pwp5 ND (Candida glabrata) (protein)
# chain: MGSSHHHHHHSSGLVPRGSHMASANPVPLTNVCYFPEEYPRQAGFRAITAGLASTILQGSVDELLNYSGLSSLTTQQTTTTTPNFQLPTLPLPTNVYGLTVVPLYLLVQLQGYFVPPVSGQYTFSLENTNDAAIIFFGNPSAFPCGDLSAWPQASADDITVTDGTFPSRTLFLKAGVAYPMRISYYNSLGSGNLAVSFTDPGGTKRTNWNGYIWRYNSCSTCTYT
# Tests used:
# Assay in all cases: glycan array binding signal (z-score within array); higher = stronger binding
# Details in all cases: glycan notation: IUPAC condensed, linker removed
# [1] = molecular target: Neu5Ac(a2-6)Gal(b1-4)GlcNAc(b1-2)Man(a1-3)[Neu5Ac(a2-3)Gal(b1-4)GlcNAc(b1-2)Man(a1-6)]Man(b1-4)GlcNAc(b1-4)GlcNAc
# Method in brief: (§1)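 From the Consortium for Functional Glycomics database, 3228 arrays were curated, keeping only those whose protein sequence was available. Binding is given as a within-array Z-score averaged across arrays sharing a protein sequence and across linkers. Negative Z-scores can be read as non-binding.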
# [2] = molecular target: Neu5Ac(a2-6)Gal(b1-4)GlcNAc(b1-2)Man(a1-3)[Neu5Ac(a2-6)Gal(b1-4)GlcNAc(b1-2)Man(a1-6)]Man(b1-4)GlcNAc(b1-4)GlcNAc
# Method in brief: as §1
# [3] = molecular target: Neu5Ac(a2-6)Gal(b1-4)GlcNAc(b1-2)Man(a1-3)[Neu5Ac(a2-6)Gal(b1-4)GlcNAc(b1-2)Man(a1-6)]Man(b1-4)GlcNAc(b1-4)[Fuc(a1-6)]GlcNAc
# Method in brief: as §1
# [4] = molecular target: Neu5Ac(a2-6)Gal(b1-4)GlcNAc(b1-2)Man(a1-6)Man(b1-4)GlcNAc(b1-4)GlcNAc
# Method in brief: as §1
# [5] = molecular target: Neu5Ac(a2-6)Gal(b1-4)GlcNAc(b1-2)Man(a1-6)[Gal(b1-4)GlcNAc(b1-2)Man(a1-3)]Man(b1-4)GlcNAc(b1-4)GlcNAc
# Method in brief: as §1
# [6] = molecular target: Neu5Ac(a2-6)Gal(b1-4)GlcNAc(b1-2)Man(a1-6)[GlcNAc(b1-2)Man(a1-3)]Man(b1-4)GlcNAc(b1-4)GlcNAc
# Method in brief: as §1
# [7] = molecular target: Neu5Ac(a2-6)Gal(b1-4)GlcNAc(b1-2)Man(a1-6)[Man(a1-3)]Man(b1-4)GlcNAc(b1-4)GlcNAc
# Method in brief: as §1
# [8] = molecular target: Neu5Ac(a2-6)Gal(b1-4)GlcNAc(b1-2)[Neu5Ac(a2-6)Gal(b1-4)GlcNAc(b1-4)]Man(a1-3)[GlcNAc(b1-4)][Neu5Ac(a2-6)Gal(b1-4)GlcNAc(b1-2)[Neu5Ac(a2-6)Gal(b1-4)GlcNAc(b1-6)]Man(a1-6)]Man(b1-4)GlcNAc(b1-4)GlcNAc
# Method in brief: as §1
# [9] = molecular target: Neu5Ac(a2-6)Gal(b1-4)GlcNAc(b1-2)[Neu5Ac(a2-6)Gal(b1-4)GlcNAc(b1-4)]Man(a1-3)[GlcNAc(b1-4)][Neu5Ac(a2-6)Gal(b1-4)GlcNAc(b1-4)Man(a1-6)]Man(b1-4)GlcNAc(b1-4)GlcNAc
# Method in brief: as §1
# [10] = molecular target: Neu5Ac(a2-6)Gal(b1-4)GlcNAc(b1-2)[Neu5Ac(a2-6)Gal(b1-4)GlcNAc(b1-6)]Man(a1-6)[Neu5Ac(a2-6)Gal(b1-4)GlcNAc(b1-2)Man(a1-3)][GlcNAc(b1-4)]Man(b1-4)GlcNAc(b1-4)GlcNAc
# Method in brief: as §1
# [11] = molecular target: Neu5Ac(a2-6)Gal(b1-4)GlcNAc(b1-3)Gal(b1-3)GlcNAc
# Method in brief: as §1
# [12] = molecular target: Neu5Ac(a2-6)Gal(b1-4)GlcNAc(b1-3)Gal(b1-4)GlcNAc
# Method in brief: as §1
# [13] = molecular target: Neu5Ac(a2-6)Gal(b1-4)GlcNAc(b1-3)Gal(b1-4)GlcNAc(b1-2)Man(a1-3)[Neu5Ac(a2-6)Gal(b1-4)GlcNAc(b1-3)Gal(b1-4)GlcNAc(b1-2)Man(a1-6)]GalNAc
# Method in brief: as §1
# [14] = molecular target: Neu5Ac(a2-6)Gal(b1-4)GlcNAc(b1-3)Gal(b1-4)GlcNAc(b1-3)Gal(b1-4)GlcNAc
# Method in brief: as §1
# [15] = molecular target: Neu5Ac(a2-6)Gal(b1-4)GlcNAc(b1-3)Gal(b1-4)GlcNAc(b1-3)Gal(b1-4)GlcNAc(b1-2)Man(a1-3)[Neu5Ac(a2-6)Gal(b1-4)GlcNAc(b1-3)Gal(b1-4)GlcNAc(b1-3)Gal(b1-4)GlcNAc(b1-2)Man(a1-6)]GalNAc
# Method in brief: as §1
# [16] = molecular target: Neu5Ac(a2-6)Gal(b1-4)GlcNAc(b1-3)Gal(b1-4)GlcNAc(b1-3)GalNAc
# Method in brief: as §1
# [17] = molecular target: Neu5Ac(a2-6)Gal(b1-4)GlcNAc(b1-3)Gal(b1-4)GlcNAc(b1-3)[Neu5Ac(a2-6)Gal(b1-4)GlcNAc(b1-3)Gal(b1-4)GlcNAc(b1-6)]GalNAc
# Method in brief: as §1
# [18] = molecular target: Neu5Ac(a2-6)Gal(b1-4)GlcNAc(b1-3)Gal(b1-4)GlcNAc(b1-6)[Gal(b1-3)]GalNAc
# Method in brief: as §1
# [19] = molecular target: Neu5Ac(a2-6)Gal(b1-4)GlcNAc(b1-3)Gal(b1-4)[Fuc(a1-3)]GlcNAc(b1-3)Gal(b1-4)[Fuc(a1-3)]GlcNAc
# Method in brief: as §1
# [20] = molecular target: Neu5Ac(a2-6)Gal(b1-4)GlcNAc(b1-3)GalNAc
# Method in brief: as §1
# [21] = molecular target: Neu5Ac(a2-6)Gal(b1-4)GlcNAc(b1-3)[Neu5Ac(a2-6)Gal(b1-4)GlcNAc(b1-6)]GalNAc
# Method in brief: as §1
# [22] = molecular target: Neu5Ac(a2-6)Gal(b1-4)GlcNAc(b1-6)GalNAc
# Method in brief: as §1
# [23] = molecular target: Neu5Ac(a2-6)Gal(b1-4)GlcNAc(b1-6)[Gal(b1-3)GlcNAc(b1-3)]Gal(b1-4)Glc
# Method in brief: as §1
# [24] = molecular target: Neu5Ac(a2-6)Gal(b1-4)GlcNAc(b1-6)[Gal(b1-3)]GalNAc
# Method in brief: as §1
# [25] = molecular target: Neu5Ac(a2-6)Gal(b1-4)GlcNAc6S
# Method in brief: as §1
# Neu5Ac(a2-6)GalNAc = molecular target: Neu5Ac(a2-6)GalNAc
# Method in brief: as §1
# [26] = molecular target: Neu5Ac(a2-6)GalNAc(b1-4)GlcNAc
# Method in brief: as §1
# [27] = molecular target: Neu5Ac(a2-6)GalNAc(b1-4)GlcNAc6S
# Method in brief: as §1
# [28] = molecular target: Neu5Ac(a2-6)GlcNAc(b1-4)GlcNAc
# Method in brief: as §1
# [29] = molecular target: Neu5Ac(a2-6)GlcNAc(b1-4)GlcNAc(b1-4)GlcNAc
# Method in brief: as §1
binder,measurement,setting,value
B1,glycan array binding signal (z-score),[1],-0.442
same,glycan array binding signal (z-score),[2],0.94
same,glycan array binding signal (z-score),[3],1.39
same,glycan array binding signal (z-score),[4],0.488
same,glycan array binding signal (z-score),[5],-0.288
same,glycan array binding signal (z-score),[6],2.4
same,glycan array binding signal (z-score),[7],0.146
same,glycan array binding signal (z-score),[8],-0.362
same,glycan array binding signal (z-score),[9],-0.613
same,glycan array binding signal (z-score),[10],-0.483
same,glycan array binding signal (z-score),[11],-0.347
same,glycan array binding signal (z-score),[12],-0.115
same,glycan array binding signal (z-score),[13],-0.169
same,glycan array binding signal (z-score),[14],-0.65
same,glycan array binding signal (z-score),[15],3.34
same,glycan array binding signal (z-score),[16],-0.259
same,glycan array binding signal (z-score),[17],-0.007
same,glycan array binding signal (z-score),[18],-0.329
same,glycan array binding signal (z-score),[19],0.095
same,glycan array binding signal (z-score),[20],-0.267
same,glycan array binding signal (z-score),[21],0.074
same,glycan array binding signal (z-score),[22],3.96
same,glycan array binding signal (z-score),[23],0.494
same,glycan array binding signal (z-score),[24],1.08
same,glycan array binding signal (z-score),[25],-0.333
same,glycan array binding signal (z-score),Neu5Ac(a2-6)GalNAc,-0.579
same,glycan array binding signal (z-score),[26],-0.67
same,glycan array binding signal (z-score),[27],0.083
same,glycan array binding signal (z-score),[28],0.217
same,glycan array binding signal (z-score),[29],-0.189
